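Tested at 5 concentrations; 48 h exposure; 96-well plates; endpoints linearly interpolated, else capped at highest concentration. Abbreviation: GI50, concentration required for 50% inhibition of growth. TGI: total growth inhibition.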 Bounds are passed on as bounds.

This test concerns NCI-H322M lung. The experiment in a line: NCI-60 cell line screen, 48 h.
Take `CNC(=O)c1cc(-n2ccc3cc(NC(=O)Nc4ccc(N5CCN(C)CC5)c(C(F)(F)F)c4)ccc32)ccn1`: the GI50 was 3.69 µM and the TGI turned out to be 7.92 µM.

In the case of `C[C@H](Nc1ncnc2ccc(-c3cnc(Cl)c(NS(C)(=O)=O)c3)cc12)c1ccccc1`, the GI50 was 1.23 µM and the TGI was 10.8 µM.

Regarding `C/C(=C(/c1ccc(O)cc1)c1ccc(OCCN2CCCCCC2)cc1)c1ccccc1`, the GI50 is more than 100 µM and the TGI is more than 100 µM.

Turning to `O=C1Nc2cc(Cl)ccc2/C1=C\c1ccc(OCc2ccc(Br)cc2F)cc1`, the GI50 was 3.01 µM and the TGI was determined as 15.8 µM.

Source of the values: PubChem BioAssay (NCI).
